From publication PMC9507357
These are yes or no findings as the source states them, for the method shown. Binding seen in cells or lysates may run through a third protein. Some entries that bind do so weakly or less than the wild type.

Sequences of proteins named here, by UniProt entry; tags and fusion partners are left off.
UniProt Q00987: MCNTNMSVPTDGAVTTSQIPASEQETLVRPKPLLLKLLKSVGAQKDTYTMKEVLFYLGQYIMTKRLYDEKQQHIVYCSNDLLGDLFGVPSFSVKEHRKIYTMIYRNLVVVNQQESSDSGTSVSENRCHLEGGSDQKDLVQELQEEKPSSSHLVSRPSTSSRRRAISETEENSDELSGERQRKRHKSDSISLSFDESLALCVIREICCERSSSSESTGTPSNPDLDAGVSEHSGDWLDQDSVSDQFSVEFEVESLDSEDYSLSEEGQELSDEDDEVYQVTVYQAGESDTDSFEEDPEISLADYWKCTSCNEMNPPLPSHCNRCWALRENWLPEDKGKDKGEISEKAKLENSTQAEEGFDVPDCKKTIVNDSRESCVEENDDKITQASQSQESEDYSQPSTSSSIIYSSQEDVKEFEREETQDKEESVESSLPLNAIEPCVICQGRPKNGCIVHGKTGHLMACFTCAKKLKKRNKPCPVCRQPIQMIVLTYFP
UniProt O75376: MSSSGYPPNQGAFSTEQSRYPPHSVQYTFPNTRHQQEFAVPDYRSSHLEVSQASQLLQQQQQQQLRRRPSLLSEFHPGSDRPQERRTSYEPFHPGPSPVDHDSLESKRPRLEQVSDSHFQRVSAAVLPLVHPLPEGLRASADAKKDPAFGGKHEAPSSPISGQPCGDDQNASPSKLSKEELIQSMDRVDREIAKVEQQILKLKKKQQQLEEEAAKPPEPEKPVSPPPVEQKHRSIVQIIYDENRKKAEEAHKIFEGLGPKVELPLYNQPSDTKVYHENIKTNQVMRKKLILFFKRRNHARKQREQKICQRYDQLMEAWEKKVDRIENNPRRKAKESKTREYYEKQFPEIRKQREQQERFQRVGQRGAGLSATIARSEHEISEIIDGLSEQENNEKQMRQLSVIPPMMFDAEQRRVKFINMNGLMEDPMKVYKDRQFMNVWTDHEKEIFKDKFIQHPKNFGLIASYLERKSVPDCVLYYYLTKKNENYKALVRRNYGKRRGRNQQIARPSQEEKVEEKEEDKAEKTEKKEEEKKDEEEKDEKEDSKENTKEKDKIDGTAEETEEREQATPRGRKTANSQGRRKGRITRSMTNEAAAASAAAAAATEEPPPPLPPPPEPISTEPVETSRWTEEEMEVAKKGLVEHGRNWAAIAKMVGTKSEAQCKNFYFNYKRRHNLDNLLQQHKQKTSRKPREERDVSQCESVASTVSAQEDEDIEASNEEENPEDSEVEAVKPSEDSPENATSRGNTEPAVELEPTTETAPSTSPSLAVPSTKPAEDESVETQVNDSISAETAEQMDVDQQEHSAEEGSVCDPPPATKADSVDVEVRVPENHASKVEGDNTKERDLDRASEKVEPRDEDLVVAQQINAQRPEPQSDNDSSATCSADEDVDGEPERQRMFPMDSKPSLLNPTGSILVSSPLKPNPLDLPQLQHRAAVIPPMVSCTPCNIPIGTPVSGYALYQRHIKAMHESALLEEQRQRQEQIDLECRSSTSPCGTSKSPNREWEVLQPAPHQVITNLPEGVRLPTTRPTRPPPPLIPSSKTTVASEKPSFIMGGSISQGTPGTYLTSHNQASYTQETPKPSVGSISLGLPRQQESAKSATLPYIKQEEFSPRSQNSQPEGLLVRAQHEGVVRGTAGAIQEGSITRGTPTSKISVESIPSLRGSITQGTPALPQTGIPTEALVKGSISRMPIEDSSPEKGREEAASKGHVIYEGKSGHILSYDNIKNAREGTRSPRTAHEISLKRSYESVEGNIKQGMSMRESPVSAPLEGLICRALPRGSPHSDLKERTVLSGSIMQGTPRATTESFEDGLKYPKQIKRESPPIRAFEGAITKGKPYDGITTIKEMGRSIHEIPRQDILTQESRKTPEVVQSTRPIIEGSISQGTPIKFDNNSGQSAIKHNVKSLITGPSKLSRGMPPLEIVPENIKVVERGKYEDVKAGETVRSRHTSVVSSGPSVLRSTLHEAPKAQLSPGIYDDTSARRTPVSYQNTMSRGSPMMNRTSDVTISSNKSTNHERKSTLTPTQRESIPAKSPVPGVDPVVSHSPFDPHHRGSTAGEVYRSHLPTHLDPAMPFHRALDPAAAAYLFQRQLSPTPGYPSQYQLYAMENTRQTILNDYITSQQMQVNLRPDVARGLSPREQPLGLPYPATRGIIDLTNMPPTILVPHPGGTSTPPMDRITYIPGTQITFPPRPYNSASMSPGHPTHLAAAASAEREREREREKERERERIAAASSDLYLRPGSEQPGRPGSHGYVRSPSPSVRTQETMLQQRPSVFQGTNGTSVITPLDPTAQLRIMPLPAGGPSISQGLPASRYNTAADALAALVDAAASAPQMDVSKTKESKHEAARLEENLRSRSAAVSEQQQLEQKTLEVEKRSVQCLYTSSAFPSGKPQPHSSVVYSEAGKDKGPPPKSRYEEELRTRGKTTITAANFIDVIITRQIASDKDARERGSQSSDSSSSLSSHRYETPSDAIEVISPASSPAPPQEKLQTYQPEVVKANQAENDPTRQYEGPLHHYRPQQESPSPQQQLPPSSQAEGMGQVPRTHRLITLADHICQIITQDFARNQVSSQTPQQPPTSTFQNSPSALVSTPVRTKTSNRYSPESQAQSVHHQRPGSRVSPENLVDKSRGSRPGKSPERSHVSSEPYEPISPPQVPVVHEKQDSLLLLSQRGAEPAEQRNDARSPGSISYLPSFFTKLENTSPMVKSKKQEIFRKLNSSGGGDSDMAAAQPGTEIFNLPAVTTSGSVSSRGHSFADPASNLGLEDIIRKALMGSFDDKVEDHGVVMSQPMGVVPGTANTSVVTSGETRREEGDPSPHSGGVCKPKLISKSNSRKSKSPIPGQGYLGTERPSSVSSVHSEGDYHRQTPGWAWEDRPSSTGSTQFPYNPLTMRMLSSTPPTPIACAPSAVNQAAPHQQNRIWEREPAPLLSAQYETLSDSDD
UniProt Q13547: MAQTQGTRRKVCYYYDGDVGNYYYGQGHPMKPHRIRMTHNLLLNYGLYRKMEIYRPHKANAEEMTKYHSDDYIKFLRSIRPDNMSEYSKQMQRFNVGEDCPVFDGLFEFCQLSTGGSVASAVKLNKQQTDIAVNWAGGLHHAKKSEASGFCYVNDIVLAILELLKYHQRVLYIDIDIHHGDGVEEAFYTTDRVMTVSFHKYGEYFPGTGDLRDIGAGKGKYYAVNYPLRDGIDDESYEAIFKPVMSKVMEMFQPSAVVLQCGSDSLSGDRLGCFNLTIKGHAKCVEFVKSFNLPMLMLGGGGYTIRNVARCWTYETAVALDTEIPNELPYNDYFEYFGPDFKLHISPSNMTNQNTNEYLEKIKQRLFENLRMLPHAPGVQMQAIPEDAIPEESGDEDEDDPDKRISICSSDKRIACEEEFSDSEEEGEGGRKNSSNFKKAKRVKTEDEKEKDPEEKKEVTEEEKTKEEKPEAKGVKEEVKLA
UniProt O15379: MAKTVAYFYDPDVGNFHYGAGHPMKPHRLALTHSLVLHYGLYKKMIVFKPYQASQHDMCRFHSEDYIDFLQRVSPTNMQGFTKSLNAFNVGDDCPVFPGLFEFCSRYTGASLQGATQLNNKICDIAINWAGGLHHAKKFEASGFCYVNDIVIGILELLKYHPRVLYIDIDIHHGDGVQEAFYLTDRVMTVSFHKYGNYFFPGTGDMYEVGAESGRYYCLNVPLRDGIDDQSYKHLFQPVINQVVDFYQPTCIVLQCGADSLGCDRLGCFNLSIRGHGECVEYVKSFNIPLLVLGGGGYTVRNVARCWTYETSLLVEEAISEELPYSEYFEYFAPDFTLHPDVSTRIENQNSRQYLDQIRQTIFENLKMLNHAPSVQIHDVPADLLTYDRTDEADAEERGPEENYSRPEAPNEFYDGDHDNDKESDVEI

What was measured:
[1] = target: OVOL2 (OVO-like zinc finger 2), endogenous (human (endogenous in MCF7, MDA-MB-231, ZR75-1)) (UniProt Q9BRP0); assay: co-IP; endogenous proteins; MCF7, MDA-MB-231 or ZR75-1 lysates precipitated with anti-OVOL2 or normal IgG, immunoblot; lysis buffer 50 mM Tris pH 8.0, 500 mM NaCl, 0.5% Nonidet P-40, 1 mM DTT; also with or without DNase I and after NCoR shRNA
[2] = target: OVOL2, exogenous (transfected; tag not given) (UniProt Q9BRP0); assay: co-IP; OVOL2–MDM2 co-IP in cells with increasing p53 overexpression (Figure S7J) or with co-expressed WT p53 or p53 mutants (Figure S7K)
[3] = target: FLAG-tagged OVOL2 (OVO-like zinc finger 2) (UniProt Q9BRP0); assay: co-IP; exogenous (transfected) proteins; anti-FLAG or Myc-agarose beads 4 h at 4 °C, immunoblot; lysis buffer 50 mM Tris pH 8.0, 500 mM NaCl, 0.5% Nonidet P-40, 1 mM DTT; Figure 6I: MCF7 or ZR75-1 with MYC-MDM2 plus FLAG-OVOL2, with or without 10 µM nutlin-3, anti-FLAG IP
[4] = target: OVOL2, exogenous (transfected; tag not given) (UniProt Q9BRP0); assay: as above
[5] = target: OVOL2, exogenous (transfected; tag not given) (UniProt Q9BRP0); assay: co-IP; Co-IP combined with Re-IP: MDA-MB-231 cells transfected with indicated plasmids, anti-FLAG agarose, elution with FLAG peptide, re-immunoprecipitation with anti-MYC or normal IgG, immunoblot
[6] = target: MDM2 (mouse double minute 2 homolog), endogenous (human (endogenous in MCF7, ZR75-1)) (UniProt Q00987); assay: co-IP; endogenous proteins; MCF-7 or ZR75-1 lysates (p53 shRNA or control shRNA, normoxia or 1% O2) precipitated with anti-MDM2 or normal IgG, immunoblot
[7] = target: His-tagged OVOL2 protein (UniProt Q9BRP0); assay: pull-down; His pull-down: purified His-fusion protein bound to nickel beads incubated with in vitro translated protein for 4 h at 4 °C; bound proteins by immunoblot; only the target purified
[8] = target: OVOL2 (101–240) containing four C2H2 zinc finger domains (UniProt Q9BRP0); assay: as above
[9] = target: T1, OVOL2 (1–100) containing the SNAG (snail/gfi-1) domain (UniProt Q9BRP0); assay: as above
T1 sequence: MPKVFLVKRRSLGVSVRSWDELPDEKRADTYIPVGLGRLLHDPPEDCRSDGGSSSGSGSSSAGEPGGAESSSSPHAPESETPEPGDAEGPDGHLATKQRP

[10] = target: T2, OVOL2 (241–275) containing the C-terminal fragment (UniProt Q9BRP0); assay: as above
T2 sequence: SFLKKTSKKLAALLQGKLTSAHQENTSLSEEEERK

“MDM2 (mouse double minute 2 homolog), endogenous (from UniProt Q00987 1-491) (enzyme)” was tested, and the binding [1] was “binds”.
For “MYC-tagged MDM2 (from UniProt Q00987 1-491) (enzyme)”, the binding [2] was “binds”, the binding [3] was “binds” and the binding [4] was “binds”.
With “NCoR (nuclear receptor co-repressor), endogenous (from UniProt O75376 1-2440)” the binding [1] was “binds”.
In the case of “NCoR (nuclear receptor co-repressor), exogenous (transfected; tag not told in the text) (from UniProt O75376 1-2440)”, the binding [5] was “binds” and the binding [4] was “binds”.
With “OVOL2 (OVO-like zinc finger 2), endogenous (from UniProt Q9BRP0 1-275)” the binding [6] was “binds”.
For “in vitro translated HDAC1 (from UniProt Q13547 1-482) (enzyme)”, the binding [7] was “no binding”.
With “in vitro translated HDAC3 (from UniProt O15379 1-428) (enzyme)” the binding [7] was “no binding”.
In the case of “in vitro translated MDM2 (from UniProt Q00987 1-491) (enzyme)”, the binding [7] was “binds”.
In the case of “in vitro translated NCoR (from UniProt O75376 1-2440)”, the binding [7] was “binds”, the binding [8] was “binds” and the binding [9] was “no binding”. For the same substance, the binding [10] was “no binding”.
With “in vitro translated p53 (from UniProt P04637 1-393)” the binding [7] was “no binding”.
For “p53 tumor suppressor protein, endogenous (from UniProt P04637 1-393)”, the binding [1] was “no binding”.
With “p53, exogenous wild type (transfected; tag not told in the text) (from UniProt P04637 1-393)” the binding [4] was “no binding”.
